Source: US10787442B2, “Modulators of indoleamine 2,3-dioxygenase” (GLAXOSMITHKLINE INTELLECTUAL PROPERTY DEVELOPMENT LIMITED, priority 2016, dated 2020)

Molecular target: indoleamine 2, 3-dioxygenase (IDO1) (Homo sapiens, UniProt P14902)
Assay: IDO1 PBMC RapidFire MS Assay (kynurenine by mass spectrometry)
Format: cell-based
Conditions: human PBMC stimulated with IFN-γ and LPS, 2 days; recorded as pIC50; read-out: IDO1 PBMC PXC50 (converted)
Method: IDO1 PBMC RapidFire MS Assay
Compounds of the present invention were tested via high-throughput cellular assays utilizing detection of kynurenine via mass spectrometry and cytotoxicity as end-points. […] Compounds with IDO1 inhibitory properties decreased the amount of kynurenine produced by the cells via the tryptophan catabolic pathway. Cellular toxicity due to the effect of compound treatment was measured using CellTiter-Glo® reagent (CTG) (Promega Corporation, Madison, Wis.), which is based on luminescent detection of ATP, an indicator of metabolically active cells.
In preparation for the assays, test compounds were serially diluted 3-fold in DMSO from a typical top concentration of 1 mM or 5 mM and plated at 0.5 μL in 384-well, polystyrene, clear bottom, tissue culture treated plates with lids (Greiner Bio-One, Kremsmünster, Austria) to generate 11-point dose response curves. Low control wells (0% kynurenine or 100% cytotoxicity) contained either 0.5 μL of DMSO in the presence of unstimulated (−IFN-γ/−LPS) PBMCs for the mass spectrometry assay or 0.5 μL of DMSO in the absence of cells for the cytotoxicity assay, and high control wells (100% kynurenine or 0% cytotoxicity) contained 0.5 μL of DMSO in the presence of stimulated (+IFN-γ/+LPS) PBMCs for both the mass spectrometry and cytotoxicity assays.
Frozen stocks of PBMCs were washed and recovered in RPMI 1640 medium (Thermo Fisher Scientific, Inc., Waltham, Mass.) supplemented with 10% v/v heat-inactivated fetal bovine serum (FBS) (Thermo Fisher Scientific, Inc., Waltham, Mass.), and 1× penicillin-streptomycin antibiotic solution (Thermo Fisher Scientific, Inc., Waltham, Mass.). The cells were diluted to 1,000,000 cells/mL in the supplemented RPMI 1640 medium. 50 μL of either the cell suspension, for the mass spectrometry assay, or medium alone, for the cytotoxicity assay, were added to the low control wells, on the previously prepared 384-well compound plates, resulting in 50,000 cells/well or 0 cells/well respectively. IFN-γ and LPS were added to the remaining cell suspension at final concentrations of 100 ng/ml and 50 ng/ml respectively, and 50 μL of the stimulated cells were added to all remaining wells on the 384-well compound plates. The plates, with lids, were then placed in a 37° C., 5% CO2 humidified incubator for 2 days.
Following incubation, the 384-well plates were removed from the incubator and allowed to equilibrate to room temperature for 30 minutes. For the cytotoxicity assay, CellTiter-Glo® was prepared according to the manufacturer's instructions, and 40 μL were added to each plate well. After a twenty minute incubation at room temperature, luminescence was read on an EnVision® Multilabel Reader (PerkinElmer Inc., Waltham, Mass.). For the mass spectrometry assay, 10 μL of supernatant from each well of the compound-treated plates were added to 40 μL of acetonitrile, containing 10 μM of an internal standard for normalization, in 384-well, polypropylene, V-bottom plates (Greiner Bio-One, Kremsmünster, Austria) to extract the organic analytes. Following centrifugation at 2000 rpm for 10 minutes, 10 μL from each well of the acetonitrile extraction plates were added to 90 μL of sterile, distilled H2O in 384-well, polypropylene, V-bottom plates for analysis of kynurenine and the internal standard on the RapidFire 300 (Agilent Technologies, Santa Clara, Calif.) and 4000 QTRAP MS (SCIEX, Framingham, Mass.). MS data were integrated using Agilent Technologies' RapidFire Integrator software, and data were normalized for analysis as a ratio of kynurenine to the internal standard.

Chain of UniProt P14902 (P14902 whole entry): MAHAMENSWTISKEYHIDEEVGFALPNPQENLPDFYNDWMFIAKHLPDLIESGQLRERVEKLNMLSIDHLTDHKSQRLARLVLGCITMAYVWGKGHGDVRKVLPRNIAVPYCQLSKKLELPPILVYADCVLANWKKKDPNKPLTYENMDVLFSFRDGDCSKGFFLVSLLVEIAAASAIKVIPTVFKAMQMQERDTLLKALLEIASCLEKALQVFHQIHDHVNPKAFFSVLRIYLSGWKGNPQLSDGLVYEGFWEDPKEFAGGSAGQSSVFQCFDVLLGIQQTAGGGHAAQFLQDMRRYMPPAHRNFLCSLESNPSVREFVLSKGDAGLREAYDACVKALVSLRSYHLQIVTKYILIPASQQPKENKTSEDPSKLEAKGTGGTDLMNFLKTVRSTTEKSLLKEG

Compound | IC50
CC(C)CN(c1ncc([C@H](C)CC(=O)O)cc1Nc1ccc(C(F)(F)F)cn1)C1CCOCC1 [Example 52, (3R)-3-{6-[(2-methylpropyl)(oxan-4-yl)amino]-5-{[5-(trifluoromethyl)pyridin-2-yl]amino}pyridin-3-yl}butanoic acid] | 20 nM
COC1CCC(N(CC(C)C)c2ncc(C(C)CC(=O)O)cc2Nc2ccc(C#N)cn2)CC1 (stereo not drawn) [Example 53, (3RS)-3-{5-[(5-cyanopyridin-2-yl)amino]-6-[(2-methylpropyl)[(1rs&,4rs&)-4-methoxycyclohexyl]amino]pyridin-3-yl}butanoic acid] | 39.8 nM
CC(C)CN(CC(C)C)c1ncc([C@H](C)CC(=O)O)cc1Nc1nc(C(C)C)ns1 [Example 54, (3R)-3-{6-[bis(2-methylpropyl)amino]-5-{[3-(propan-2-yl)-1,2,4-thiadiazol-5-yl]amino}pyridin-3-yl}butanoic acid] | 63.1 nM
Cc1ccc(CC(=O)Nc2cc([C@H](C)CC(=O)O)cnc2N(CC(C)C)C2CC3(C2)CN(C(=O)OC(C)(C)C)C3)cc1 [Example 55, (3R)-3-[6-({2-[(tert-butoxy)carbonyl]-2-azaspiro[3.3]heptan-6-yl}(2-methylpropyl)amino)-5-[2-(4-methylphenyl)acetamido]pyridin-3-yl]butanoic acid] | 2000 nM
COCc1nsc(Nc2cc([C@H](C)CC(=O)O)cnc2N(CC(C)C)C2CCOCC2)n1 [Example 56, (3R)-3-(5-{[3-(methoxymethyl)-1,2,4-thiadiazol-5-yl]amino}-6-[(2-methylpropyl)(oxan-4-yl)amino]pyridin-3-yl)butanoic acid] | 100 nM
CC(C)CN(c1ncc([C@H](C)CC(=O)O)cc1Nc1ccc(C#N)cn1)C1CCOCC1 [Example 57, (3R)-3-{5-[(5-cyanopyridin-2-yl)amino]-6-[(2-methylpropyl)(oxan-4-yl)amino]pyridin-3-yl}butanoic acid] | 25.1 nM
COCc1ccc(Nc2cc([C@H](C)CC(=O)O)cnc2N(CC(C)C)[C@H]2CC[C@@H](OC)CC2)nc1 [Example 58, (3R)-3-(5-{[5-(methoxymethyl)pyridin-2-yl]amino}-6-[(2-methylpropyl)[(1s,4s)-4-methoxycyclohexyl]amino]pyridin-3-yl)butanoic acid] | 200 nM
CC(C)CN(c1ncc(C(C)CC(=O)O)cc1Nc1nc(C(F)(F)F)ns1)C1CCC(O)CC1 (stereo not drawn) [Example 59, (3RS)-3-{6-[(2-methylpropyl)[(1rs&,4rs&)-4-hydroxycyclohexyl]amino]-5-{[3-(trifluoromethyl)-1,2,4-thiadiazol-5-yl]amino}pyridin-3-yl}butanoic acid] | 39.8 nM
CC(C)CN(c1ncc([C@H](C)CC(=O)O)cc1Nc1ccc(Cl)nn1)C1CCOCC1 [Example 60, (3R)-3-{5-[(6-chloropyridazin-3-yl)amino]-6-[(2-methylpropyl)(oxan-4-yl)amino]pyridin-3-yl}butanoic acid] | 15.8 nM
Cc1cc(NC(=O)Nc2cc([C@H](C)CC(=O)O)cnc2N(CC(C)C)C2CC3(C2)CN(C(=O)OC(C)(C)C)C3)on1 [Example 61, (3R)-3-[6-({2-[(tert-butoxy)carbonyl]-2-azaspiro[3.3]heptan-6-yl}(2-methylpropyl)amino)-5-{[(3-methyl-1,2-oxazol-5-yl)carbamoyl]amino}pyridin-3-yl]butanoic acid] | 2000 nM
CC(C)CN(c1ncc([C@H](C)CC(=O)O)cc1Nc1ccc(C#N)nc1)C1CCOCC1 [Example 62, (3R)-3-{5-[(6-cyanopyridin-3-yl)amino]-6-[(2-methylpropyl)(oxan-4-yl)amino]pyridin-3-yl}butanoic acid] | 15.8 nM
CC(C)CN(c1ncc([C@H](C)CC(=O)O)cc1Nc1nnc(C(N)=O)s1)C1CCCCC1 [Example 63, (3R)-3-{5-[(5-carbamoyl-1,3,4-thiadiazol-2-yl)amino]-6-[cyclohexyl(2-methylpropyl)amino]pyridin-3-yl}butanoic acid] | 12.6 nM
CNC(=O)c1nnc(Nc2cc([C@H](C)CC(=O)O)cnc2N(CC(C)C)C2CCCCC2)s1 [Example 64, (3R)-3-{6-[cyclohexyl(2-methylpropyl)amino]-5-{[5-(methylcarbamoyl)-1,3,4-thiadiazol-2-yl]amino}pyridin-3-yl}butanoic acid] | 25.1 nM
CC(C)CN(c1ncc([C@H](C)CC(=O)O)cc1Nc1cnc(C#N)nc1)C1CCOCC1 [Example 65, (3R)-3-{5-[(2-cyanopyrimidin-5-yl)amino]-6-[(2-methylpropyl)(oxan-4-yl)amino]pyridin-3-yl}butanoic acid] | 25.1 nM
CC(C)CN(c1ncc([C@H](C)CC(=O)O)cc1Nc1ccc(C(F)(F)F)nn1)C1CCOCC1 [Example 66, (3R)-3-{6-[(2-methylpropyl)(oxan-4-yl)amino]-5-{[6-(trifluoromethyl)pyridazin-3-yl]amino}pyridin-3-yl}butanoic acid] | 12.6 nM
CC(C)CN(c1ncc([C@H](C)CC(=O)O)cc1Nc1cnc(C#N)cn1)C1CCOCC1 [Example 67, (3R)-3-{5-[(5-cyanopyrazin-2-yl)amino]-6-[(2-methylpropyl)(oxan-4-yl)amino]pyridin-3-yl}butanoic acid] | 63.1 nM
CC(C)CN(c1ncc([C@H](C)CC(=O)O)cc1Nc1ccc(Cl)c(Cl)n1)C1CCOCC1 [Example 68, (3R)-3-{5-[(5,6-dichloropyridin-2-yl)amino]-6-[(2-methylpropyl)(oxan-4-yl)amino]pyridin-3-yl}butanoic acid] | 31.6 nM
Cc1nc(Nc2cc([C@H](C)CC(=O)O)cnc2N(CC(C)C)C2CCOCC2)ccc1Cl [Example 69, (3R)-3-{5-[(5-chloro-6-methylpyridin-2-yl)amino]-6-[(2-methylpropyl)(oxan-4-yl)amino]pyridin-3-yl}butanoic acid] | 251 nM
CC(C)CN(c1ncc([C@H](C)CC(=O)O)cc1Nc1ccc(Cl)c(C#N)n1)C1CCOCC1 [Example 70, (3R)-3-{5-[(5-chloro-6-cyanopyridin-2-yl)amino]-6-[(2-methylpropyl)(oxan-4-yl)amino]pyridin-3-yl}butanoic acid] | 158 nM
CC(C)CN(CC(F)F)c1ncc([C@H](C)CC(=O)O)cc1Nc1ccc(Cl)cn1 [Example 71, (3R)-3-{5-[(5-chloropyridin-2-yl)amino]-6-[(2,2-difluoroethyl)(2-methylpropyl)amino]pyridin-3-yl}butanoic acid] | 20 nM
CC(C)CN(CC(C)C)c1nnc(C(C)CC(=O)O)cc1Nc1nc(C(F)(F)F)ns1 (stereo not shown) [Example 72, 3-{6-[bis(2-methylpropyl)amino]-5-{[3-(trifluoromethyl)-1,2,4-thiadiazol-5-yl]amino}pyridazin-3-yl}butanoic acid] | > 10000 nM
CC(C)CN(c1ncc([C@H](C)CC(=O)O)cc1Nc1ccc(C#N)nn1)C1CCOCC1 [Example 74, (3R)-3-{5-[(6-cyanopyridazin-3-yl)amino]-6-[(2-methylpropyl)(oxan-4-yl)amino]pyridin-3-yl}butanoic acid] | 126 nM
CC(C)CN(c1ncc([C@H](C)CC(=O)O)cc1Nc1ccc(Cl)cn1)C1CC(F)(F)C1 [Example 75, (3R)-3-{5-[(5-chloropyridin-2-yl)amino]-6-[(3,3-difluorocyclobutyl)(2-methylpropyl)amino]pyridin-3-yl}butanoic acid] | 39.8 nM
CC(C)CN(CCC(F)(F)F)c1ncc([C@H](C)CC(=O)O)cc1Nc1ccc(Cl)cn1 [Example 76, (3R)-3-{5-[(5-chloropyridin-2-yl)amino]-6-[(2-methylpropyl)(3,3,3-trifluoropropyl)amino]pyridin-3-yl}butanoic acid] | 63.1 nM
CC(C)CN(c1ncc([C@H](C)CC(=O)O)cc1Nc1cnc(Cl)cn1)C1CCOCC1 [Example 77, (3R)-3-{5-[(5-chloropyrazin-2-yl)amino]-6-[(2-methylpropyl)(oxan-4-yl)amino]pyridin-3-yl}butanoic acid] | 20 nM
